Measured values: PubChem BioAssay AID1030 (National Center for Advancing Translational Sciences (NCATS), 2008)
Hit rate of the full screen: of about 220,000 compounds, about 16,000 (7.3%) were called active. Inconclusive means that the source gave no clear call. Such entries were picked first, then a sample of the others. The call rests on the fitted dose curve; in most records, active means well fitted inhibition curve with a large enough effect (not every such curve was filed as active); inconclusive means small, poorly fitted or top-dose-only effect, or another doubt; inactive means no such curve, though single readings can be large or run the other way. Potencies of inconclusive entries are left out as doubtful fits.

target: Aldehyde dehydrogenase 1A1 (Homo sapiens) (UniProt P00352); assay: qHTS Assay for Inhibitors of Aldehyde Dehydrogenase 1 (ALDH1A1); settings: Purified ALDH1A1, NADH fluorescence, propionaldehyde substrate; series mostly up to 75.3 µM;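 on activity, negative = inhibition: plate controls were no enzyme wells and a reference inhibitor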
Chain of UniProt P00352 (P00352 whole entry, looked up): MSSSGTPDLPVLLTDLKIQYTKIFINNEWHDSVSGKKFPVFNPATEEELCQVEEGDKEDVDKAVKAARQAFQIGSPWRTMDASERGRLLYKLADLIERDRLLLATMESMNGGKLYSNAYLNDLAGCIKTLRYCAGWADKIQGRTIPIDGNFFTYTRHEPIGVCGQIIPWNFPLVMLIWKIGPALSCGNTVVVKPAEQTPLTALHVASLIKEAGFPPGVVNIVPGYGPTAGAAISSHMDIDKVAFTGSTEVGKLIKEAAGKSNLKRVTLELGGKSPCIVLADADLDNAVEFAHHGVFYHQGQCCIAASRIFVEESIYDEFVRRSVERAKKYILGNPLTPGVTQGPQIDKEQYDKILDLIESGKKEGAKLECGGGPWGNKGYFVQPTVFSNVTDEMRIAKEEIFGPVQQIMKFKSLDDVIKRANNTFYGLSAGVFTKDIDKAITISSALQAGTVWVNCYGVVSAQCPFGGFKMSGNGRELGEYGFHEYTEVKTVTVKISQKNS
Potency means the concentration at half of the fitted maximal effect; tags describe the fitted curve by direction and shape.

SMILES | Potency | activity, negative = inhibition
CC/C(=C\C(=O)c1cccnc1)Nc1ccc(C)c(C)c1 | inconclusive [inhibitor, single point] | –
CC1=C(C(=O)Nc2ccccc2F)C(c2cccs2)C2=C(CCCC2=O)N1 (stereo not given) | inconclusive [inhibitor, single point] | –
CC(C)(Oc1ccc([C@@H]2CC2(Cl)Cl)cc1)C(=O)O | inactive | –
CC1Cc2nc(SCC(=O)NC3CCCCC3)n(C)c(=O)c2S1 (stereo not given) | inactive | –
COc1c2occc2c(OC)c2c(=O)cc(C(F)(F)C(F)(F)F)oc12 | inactive | –
Cc1ccc(C(=O)O)cc1-c1ccc(/C=C2\SC(=O)N(CC(=O)Nc3ccccc3)C2=O)o1 | inconclusive [inhibitor, single point] | –
Cc1ccc(CCN2CC(C(=O)NCCCN3CCN(C)CC3)CC2=O)cc1 (stereo not given) | inconclusive [inhibitor, single point] | –
C=C(C)CCC1(C)NC(=O)N(c2ccccc2)N1 (stereo not given) | inconclusive [inhibitor, single point] | –
Cc1ccc(C(=O)CSc2nnnn2-c2ccccc2)o1 | active: 3.55 µM | –
Cn1c(Cn2cnc([N+](=O)[O-])n2)nnc1SCC(=O)Nc1ccc(Br)cc1 | inconclusive [inhibitor, single point] | –
COCc1cc(C)nc(N2CCN(Cc3ccccc3)CC2)c1C#N | inconclusive [inhibitor, single point] | –
CNC(=S)NNC(=O)c1cccn(Cc2ccc(Cl)c(Cl)c2)c1=O | inconclusive [inhibitor, single point] | –
Cc1ccc(/C=N/NC(=O)CSc2ccccn2)o1 | active: 7.94 µM | –
CSc1ccccc1NC(=S)Nc1ccccc1C(F)(F)F | inactive | –
CCOP(=O)(OCC)/C(=N/OC(=O)c1ccccc1C)C(N)=O | inactive | –
CCN(CC)c1ccc(/C=N/Nc2ccc(C)cc2)c(O)c1 | active: 10 µM | –
COc1cc(C(=S)N2CCOCC2)cc(OC)c1OC(=O)Cc1ccc(F)cc1 | active: 28.2 µM | –
O=C(CSc1ccc(-c2ccco2)nn1)NCc1ccc(Cl)cc1 | active: 7.08 µM | –
Cc1ccc(S(=O)(=O)NNC(=O)c2sc(=S)n(C)c2C)cc1 | inconclusive [inhibitor, single point] | –
O=[N+]([O-])c1cccc(S(=O)(=O)N2CCCCCC2)c1 | inconclusive [inhibitor, partial curve, poor fit] | –
Clc1ccc2nc(-c3ccc4c(c3)OCO4)cn2c1 | inconclusive [inhibitor, full curve] | –
COC(=O)CSC1=C(C#N)C(c2ccc(C)o2)CC(=O)N1 (stereo not given) | inactive | –
O=C(N/N=C/c1ccccc1OCc1ccccc1)c1cccnc1 | inactive | –
COc1ncc2nc(-c3cccs3)c(=O)n(CCC#N)c2n1 | inconclusive [inhibitor, partial curve] | –
C=CCNc1ncnc2ccc(Br)cc12 | inconclusive [inhibitor, single point] | –

SMILES | Potency | activity, negative = inhibition
CC1(C)Oc2ccc3ccc(=O)oc3c2/C(=C/NC2CCCCC2)C1=O | inconclusive [inhibitor, single point] | –
O=C(Nc1ccc(S(=O)(=O)NCCc2ccccc2)cc1)c1ccco1 | inconclusive [inhibitor, partial curve, poor fit] | –
Cc1ccc(C(=O)CC2(O)C(=O)N(Cc3ccccc3Cl)c3ccccc32)o1 (stereo not given) | active: 3.55 µM | –
CCSc1nnc(CNC(=O)C23CC4CC(CC(C4)C2)C3)n1C1CCCCC1 | inactive | –
CC(=O)Nc1cccc(NC(=O)C2CC3CCC2C3)c1 (stereo not given) | inactive | –
CCS(=O)(=O)c1ccc(O)c(NC(=O)/C=C/c2ccccc2)c1 | inconclusive [inhibitor, partial curve] | –
COc1ccc(OC)c(C2C=C(C34CC5CC(CC(C5)C3)C4)NC(=S)N2)c1 (stereo not given) | active: 2.51 µM | –
CC(=O)NCCn1c(SCc2cc(F)ccc2F)nc2ccccc2c1=O | inconclusive [inhibitor, single point] | –
CSCCC(NC(=O)c1ccccc1)C(=O)OCC(=O)Nc1ccc(C)c(Cl)c1 (stereo not given) | inconclusive [inhibitor, single point] | –
COc1ccc(CC(=O)N2CCN(C(=O)c3ccco3)CC2)cc1 | active: 20 µM | –
COc1ccc(/C=C/c2nc3ccccc3n2Cc2ccccc2OC)cc1 | inconclusive [inhibitor, partial curve] | –
COC(=O)CN1C(=O)S/C(=C/c2ccc(N3CCCCC3)o2)C1=O | active: 0.282 µM | –
COC(=O)CCCC1=CC2=CC(=O)C(C)(OC(=O)c3cccs3)C(=O)C2=CN1Cc1ccco1 (stereo not given) | – | inactive: -14.9% [at 13.5 µM]
O=C(c1oc(=O)c2ccccc2c1-c1ccccc1)N1CCN(C2CCCCC2)CC1 | inactive | –
CCOC(=O)c1[nH]c(CO)c(C(=O)OCC)c1C | inactive | –
S=C(Nc1ccccc1Cl)NC1CCCCCC1 | inconclusive [inhibitor, partial curve, poor fit] | –
Cc1cccc(N2CCN(C(=S)c3ccc([N+](=O)[O-])cc3)CC2)c1 | active: 2.51 µM | –
Cc1ccc(S(=O)(=O)N2CCC(C(=O)Nc3nnc(-c4ccc(F)cc4)s3)CC2)cc1 | inactive | –
CC(C)(C)C(=O)CC1(O)C(=O)N(Cc2ccccc2)c2ccccc21 (stereo not given) | active: 7.08 µM | –
CCOC(=O)C1(Cc2cccc(OC)c2)CCCN(C(=O)CCc2cccnc2)C1 (stereo not given) | inactive | –
CC1Cc2ccccc2N1C(=S)Nc1ccc(S(N)(=O)=O)cc1 (stereo not given) | inactive | –
CCCC(=O)Nc1ccc2c(c1)nc1n2CCSC1 | active: 25.1 µM | –
COc1ccc(C(=O)Nn2c(SCc3cccc([N+](=O)[O-])c3)nc3ccccc3c2=O)cc1 | inconclusive [inhibitor, full curve] | –
CCC(C)c1ccc(OCC(=O)O)cc1 (stereo not given) | inconclusive [inhibitor, single point] | –
COc1ccc(CNc2nc(-c3cccnc3)nn2C(=O)c2cccs2)cc1 | inconclusive [inhibitor, partial curve] | –
